# The whole screen tested about 310,000 compounds, of which about 14,000 (4.5%) showed an effect of 50% or more. The effect is printed as a negative number. The list shows a part of the results.
# Molecular target: human ether-à-go-go-related gene (hERG) potassium channel (human, UniProt Q12809)
# Test: primary screen, population patch clamp on CHO cells stably expressing hERG
# 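Further: peak tail current of the secondary pulse compared with the same well before compound.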
# human ether-à-go-go-related gene (hERG) potassium channel, sequence (Q12809 whole entry, looked up): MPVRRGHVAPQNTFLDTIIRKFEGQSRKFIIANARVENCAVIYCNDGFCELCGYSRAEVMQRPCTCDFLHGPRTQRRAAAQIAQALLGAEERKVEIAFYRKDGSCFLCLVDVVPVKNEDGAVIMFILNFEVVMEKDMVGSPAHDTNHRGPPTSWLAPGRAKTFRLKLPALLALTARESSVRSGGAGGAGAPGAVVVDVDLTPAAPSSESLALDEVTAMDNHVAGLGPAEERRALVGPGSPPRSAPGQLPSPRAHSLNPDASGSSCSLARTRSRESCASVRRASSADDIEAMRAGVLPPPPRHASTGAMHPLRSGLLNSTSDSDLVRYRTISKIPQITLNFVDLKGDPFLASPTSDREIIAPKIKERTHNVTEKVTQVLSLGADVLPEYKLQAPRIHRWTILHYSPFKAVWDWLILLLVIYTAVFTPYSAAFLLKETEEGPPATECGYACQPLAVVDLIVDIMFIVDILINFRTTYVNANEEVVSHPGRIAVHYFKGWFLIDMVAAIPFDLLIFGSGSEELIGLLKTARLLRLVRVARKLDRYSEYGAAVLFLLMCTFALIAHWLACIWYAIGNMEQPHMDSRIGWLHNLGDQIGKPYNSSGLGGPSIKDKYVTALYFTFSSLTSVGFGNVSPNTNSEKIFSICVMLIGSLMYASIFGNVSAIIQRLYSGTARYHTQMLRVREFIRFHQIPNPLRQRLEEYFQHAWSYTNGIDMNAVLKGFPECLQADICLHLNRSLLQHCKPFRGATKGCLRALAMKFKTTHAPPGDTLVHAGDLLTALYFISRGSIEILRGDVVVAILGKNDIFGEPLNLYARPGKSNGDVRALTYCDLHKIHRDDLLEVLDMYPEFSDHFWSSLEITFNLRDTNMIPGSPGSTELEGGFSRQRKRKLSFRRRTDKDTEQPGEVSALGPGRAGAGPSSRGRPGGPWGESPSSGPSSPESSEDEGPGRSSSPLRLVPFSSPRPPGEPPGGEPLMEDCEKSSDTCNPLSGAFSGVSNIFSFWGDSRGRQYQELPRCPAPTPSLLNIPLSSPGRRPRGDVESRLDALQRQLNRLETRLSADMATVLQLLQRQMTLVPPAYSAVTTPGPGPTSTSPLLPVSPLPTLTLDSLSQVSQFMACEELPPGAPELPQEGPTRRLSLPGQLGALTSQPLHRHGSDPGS
row,Structure (SMILES),"hERG current change (%, negative = inhibition) at 10uM [%]"
1,Cc1ccnc(NC(=O)Nc2ccc3c(c2)N(C)C(=O)CS3)c1,4.14
2,COc1ccc(CNC(=O)C2CCC(=O)N(CCCN3CCCC3=O)C2)cc1 (stereo not drawn),11.2
3,COc1cccc(C(=O)Nc2cc(=O)n(C)c(=O)n2C)c1,17.3
4,O=C(CC1C(=O)NCCN1C(=O)Nc1ccccc1)Nc1ccc(F)cc1 (stereo not drawn),3.45
5,N#CC(C(=O)NC1CCCCC1)c1nc2ccccc2nc1N1CCN(c2ccccc2F)CC1 (stereo not drawn),-0.245
6,COc1cn(-c2ccccc2)nc1C(=O)OCC(=O)Nc1ccc(C)c(C)c1,7.08
7,Cc1c(N(C)C)nc2ccccc2c1N.O=C(O)C(=O)O,-46.5
8,Cc1ccc(C(=O)Nc2ncc([N+](=O)[O-])s2)cc1,9.09
9,Cn1c(=O)oc2cc(S(=O)(=O)NCCN3CCN(c4ccccc4)CC3)ccc21,-10.9
10,COC(=O)c1ccc(S(=O)(=O)NCc2ccccc2)n1C,-5.1
11,Cc1cc(OCC(=O)N2C[C@H]3C[C@@H](C2)c2cccc(=O)n2C3)c2c(C)c(C)c(=O)oc2c1,0.123
12,CCOc1ccc(-c2nonc2NC(=O)c2ccco2)cc1OCC,19.2
13,O=C(O)CCSc1nc2ccccc2c(=O)[nH]1,5.02
14,CC1(C)CC(=O)C2=C(C1)N(c1ccccc1)C(N)=C(C#N)C2c1ccccc1 (stereo not drawn),2.6
15,Cc1nn(CCc2nn[nH]n2)c2nc(C(F)(F)F)cc(C(F)(F)F)c12,6.25
16,CCOC(=O)c1cnn(-c2ccccc2)c1-c1ccccc1,7.07
17,COc1ccc(OC)c(S(=O)(=O)N2CCN(CC(O)COc3ccc(C#N)cc3)CC2)c1 (stereo not drawn),-66.2
18,CCN1C(=O)CC(C(=O)NC)SC1=Nc1cc(Cl)c(O)c(Cl)c1 (stereo not drawn),22.1
19,Cc1cc([N+](=O)[O-])nn1CCCC(=O)Nc1ccc(Cl)cc1Cl,-27.9
20,Cc1ccc(-c2nnn(CC(=O)N(CC(=O)NCC3CCCO3)c3ccc(F)c(Cl)c3)n2)o1 (stereo not drawn),-4
21,COC(=O)CCC(=O)OC1(C)C(=O)C=C2C=C(C3CC3)OC=C2C1=O (stereo not drawn),6.14
22,Cc1ccc(C)c(C(C)NC(=O)C2CCCC2)c1 (stereo not drawn),12.2

row,Structure (SMILES),"hERG current change (%, negative = inhibition) at 10uM [%]"
1,C=CCN(C(=O)CCC(=O)O)C1CC(=O)N(c2ccc(OCCC)cc2)C1=O (stereo not drawn),0.711
2,CCc1cc2c(=O)n(Cc3ccco3)c(SCC(=O)N3CCCc4ccccc43)nc2s1,-23.4
3,CC(OC(=O)c1ccncc1)C(=O)Nc1cc(S(=O)(=O)N2CCCCC2)ccc1Cl (stereo not drawn),-15.5
4,FC(F)(F)c1cccc(NC(=S)NNC(=S)Nc2ccc(Cl)cc2)c1,14.1
5,CC(=O)NNc1ncnc2ccccc12,21.5
6,Br.COc1cccc(C(=O)CSc2nccn2C)c1,24.2
7,O=C(CCC1COc2ccccc2O1)NCC1COc2ccccc2O1 (stereo not drawn),-14.6
8,Cc1ccc(C(=O)NCCc2nnc3ccc(N4CCCC4)nn23)cc1,13
9,CCOC(=O)/C=C1\SCC(=O)N1CC(=O)Nc1ccc(C(C)C)cc1,-29.8
10,COc1ccc(NC(=O)CSc2nnc(-c3ccccn3)n2Cc2ccco2)cc1OC,-39.2
11,COc1ccc(-c2cc(=O)oc3cc(OCC(=O)N4C[C@H]5C[C@@H](C4)c4cccc(=O)n4C5)ccc23)cc1,-53.5
12,Cc1occc1C(=O)Nc1ccc2c(c1)CCC2,-1.92
13,CCN1C[C@]2(CO)CC[C@H](OC)[C@@]34C2[C@H](OC)[C@@](O)(C13)[C@@]1(O)C[C@H](OC)[C@H]2C[C@@H]4[C@@H]1[C@H]2OC,5.23
14,Cc1ccc(NC(=S)N(CCN(C)C)Cc2cc3cccc(C)c3[nH]c2=O)cc1,-55.6
15,CCCOc1ccc(CN(C(=O)c2cccc(OC)c2)C2CCS(=O)(=O)C2)cc1 (stereo not drawn),-25.4
16,COc1ccccc1NC(=O)c1ccccc1NS(=O)(=O)N1CCCC1,7.27
17,O=C(OCc1ccccc1)c1cccc(-c2nnn(Cc3ccccc3)n2)c1,4.3
18,Cc1cccc(C)c1NC(=O)CS(=O)CC(=O)NCC1OCCc2ccccc21 (stereo not drawn),22.2
19,C=CCn1c(P(C)(=O)O)nc2ccccc21,17.5
20,CCCCn1c(CCNC(=O)CC)nc2ccccc21,-11.2
21,CCC(=O)c1ccc(OCC(=O)OCC(=O)N2CCc3ccccc3C2)cc1,-24.8
22,COc1ccc(-c2oc(NC(=O)c3ccc(C)cc3)c(C#N)c2-c2ccc(OC)cc2)cc1,-11.6

row,Structure (SMILES),"hERG current change (%, negative = inhibition) at 10uM [%]"
1,CCOc1cc2c(cc1/C=C1/NC(=O)N(CC(=O)OC)C1=O)OCO2,15
2,Cc1cc(N2CCC(C(=O)NC3CCCCC3)CC2)nc(-c2ccccc2)n1,-49.6
3,CCOc1ccc(CCNC(=O)CSc2cc(=O)n(C)c3ccc(Cl)cc23)cc1OCC,-21.4
4,CCCCC1(CCCC)C(=O)NC(=Nc2cccc(C)c2)NC1=O,0.0469
5,O=C(c1ccc(Cl)c(S(=O)(=O)Nc2ccc(F)cc2)c1)N1CCN(c2ccccn2)CC1,-33.9
6,Cc1oc(-c2ccccc2F)nc1CS(=O)CC(=O)NCc1ccccn1 (stereo not drawn),-0.614
7,O=C(NC1CCCC1)C(c1ccncc1)N(C(=O)c1csnn1)c1ccccc1 (stereo not drawn),15.1
8,Cc1cccc(NC(=O)C2c3ccccc3Oc3ccccc32)n1,4.69
9,Cc1ccc(-c2cc(C(=O)NCCc3ccc(S(N)(=O)=O)cc3)c3ccccc3n2)cc1,-1.37
10,Cc1cc(C)cc(NC(=S)NCC2CCN(C(C)c3ccccc3)C2)c1 (stereo not drawn),-63.3
11,CCOC(=O)c1ccc(N=c2sc(C(=O)OC)cc(=O)n2C2CC2)cc1,-0.0139
12,CC(C)(C)NC(=O)Cn1cc(C#N)c2cc(Br)ccc21,4.22
13,COc1ccc(OCCCC(=O)Nc2cccc(S(=O)(=O)N3CCCCCC3)c2)cc1,-45.2
14,O=C(Nc1ccc(CN2CCCCC2)cc1)c1c(F)c(F)c(F)c(F)c1F,-56.5
15,Cc1c(C2CC(=O)N(c3ccccc3)C2=O)[nH]n(-c2ccccc2)c1=O (stereo not drawn),3
16,CCOC(=O)c1c(NC(=O)c2nn(CC)cc2Br)c(C#N)nn1-c1ccccc1,-2.69
17,CCc1ccc(C2C3=C(CCCC3=O)OC3=C2C(=O)CCC3)cc1,3.19
18,CC1/C(=N/O)C(CN(C)C)C2CC1C2(C)C.Cl (stereo not drawn),18.8
19,COc1ccc(C(=O)c2coc3ccc(O)c(CN4CCOCC4)c23)cc1,-51.2
20,COc1ccc(C(=O)NCCN2CCOCC2)cc1[N+](=O)[O-],8.47
21,O=S1(=O)CCO[C@H]2Cc3ccccc3[C@H]2N1Cc1cccc(C(F)(F)F)c1,-9.04
22,COc1ccc(-n2c(CNC(=O)COc3ccc(Cl)cc3)n[nH]c2=S)cc1,-0.948

row,Structure (SMILES),"hERG current change (%, negative = inhibition) at 10uM [%]"
1,Cl.O=C(CN1CCNCC1)NCCSc1ccc(Cl)cc1,-15.7
2,Cn1c(CCNC(=O)c2ccccc2F)nnc1SCC(=O)Nc1ccccc1F,3.44
3,CC(C)COC(=S)Nc1ccccc1,6.77
4,O=C1NC[C@H](Cc2ccccc2)N(CC2CCCCC2)C1=O,4.91
5,CCCOc1ccccc1C(=O)N1CCNC(=O)C1CC(=O)OC(C)C (stereo not drawn),0.716
6,Cc1ccc(C(=O)NCC(=O)N/N=C/c2sccc2C)cc1[N+](=O)[O-],18.6
7,CN(C)C(CNC(=O)CCNS(=O)(=O)c1ccccc1C(F)(F)F)c1ccccc1 (stereo not drawn),-27.8
8,O=C(OC(C(=O)NC1CCCCC1)c1ccccc1F)c1ccco1 (stereo not drawn),10.7
9,O=C(Nc1cccc2[nH]ncc12)c1ccc(F)cc1,-17.4
10,Cc1cccc(NC(=O)c2cc(S(=O)(=O)N3CCOCC3)cn2C)c1C,0.701
11,CC1CC(C)(C)NC(=S)N1CCC(=O)N1CCc2ccccc2C1 (stereo not drawn),0.935
12,C=CCOc1ccc(CNCCO)cc1OCC.Cl,-5.9
13,O=C(CC1CCCCC1)NCc1ccccc1Cl,2.13
14,Cc1c(C(=O)N2CCN(c3ccccc3F)CC2)sc2ncn(CC(=O)N3CCOCC3)c(=O)c12,-3.64
15,O=C(CSc1ncn[nH]1)NCCCc1ccccc1,10.1
16,O=C(CCn1c(=O)oc2ccccc21)N(Cc1ccccc1)c1ccccn1,-17.3
17,CC(=O)NCCC(=O)N1CCCC(CNC(=O)c2ccc(-c3ccccc3)cc2)C1 (stereo not drawn),-0.511
18,CCCCn1c2c(c3ccccc31)CCc1nonc1-2,-11.9
19,CC(NC(=O)c1cc(Br)ccc1Br)c1ccccc1 (stereo not drawn),4.77
20,O=C(NCCCN1CCCC1=O)c1nnc(Cc2c(F)cccc2Cl)o1,1.34
21,CCOC(=O)C(=O)/C(=C\N(C)C)c1onc(-c2ccccc2Cl)c1C(=O)OC,0.95

# — article PMC4336329 (PLoS ONE, 2015)
